± gives the standard deviation of the averaged measurements. Some of the results follow.
system: PfAP2-LT AP2 domain (GST-tagged); test: gcPBM binding intensity (ln(normalized median fluorescence intensity)); higher = stronger DNA binding
In short: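 Binding of GST-tagged P. falciparum DNA-binding domains, expressed in E. coli and used at about 25 μg on average, was carried out for 1 h in 1× PBS containing 1% milk, 0.2 mg/ml BSA, 0.5% salmon testes DNA and 0.03% Triton X-100. The target was an Agilent 4 × 180k array of primer-extended double-stranded 36-bp intergenic genomic probes plus negative controls, read with Alexa488 anti-GST antibody at 488 nm. Binding intensity is the highest Masliner-normalised natural-log median intensity across replicate spots of either probe orientation.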

Row | Sequence | gcPBM binding intensity (ln)
1 | TATTAATTATATTTATGTACATAATCATATTATTAT [XGTACX_site7938] | 8.94 ± 0.44
2 | TTTATTTATTACTAAAGTACTAAATCATATTATTAT [XGTACX_site2574] | 8.46 ± 0.47
3 | ATGAACAAGTGGCACACACACATTATAACTAATTTA [CACACA_site5731] | 9.37 ± 0.38
4 | AAAATAATATTTCCTTGTACACATATGTATTTGTTC [XGTACX_site4430] | 9.15 ± 0.48
5 | TTCTTTTTTTTTATCACACATATTACAATCTAGTGC [CACACA_site4697] | 8.97 ± 0.41
6 | GTATACATGCAAATTTTTATTTACAACCCCAAAAAG [XGTACX_negctrl_site255] | 8.91 ± 0.24
7 | TTTTCATAATATACATGTACATATATAAATTATTAA [XGTACX_site5206] | 8.42 ± 0.4
8 | TATTATAATATGCCTTGTACATATAACAAATTTATT [XGTACX_site108] | 8.58 ± 0.45
9 | TTTTTTTCACAAAATACACACAATATATTTTATATC [CACACA_site1138] | 8.78 ± 0.53
10 | TTAACATAAATATATACACACCAATGATGGCATTTA [CACACA_site4952] | 8.74 ± 0.35
11 | TATATATAATATATATGTACGTATATATATAATATA [XGTACX_site8383] | 8.66 ± 0.35
12 | GTTTCCTTAATATTCACACACATATATATAATATAT [CACACA_site1856] | 9.22 ± 0.26
13 | ATGTTATAAGATTTATGTACACACATATACACACCT [XGTACX_site1316] | 9.46 ± 0.29
14 | AATAAAGCAATAAATACACACATATTTATATTTATA [CACACA_site7390] | 8.98 ± 0.38
15 | TTTATTTTCCAAAGGGTGCACATAGTTGAAACGATA | 8.62 ± 0.43
16 | ATATATAATTTTTACACACGCAATAAATATATATAT [CACACA_site4283] | 8.91 ± 0.39
17 | TTTTGGATTGAGGACCTTTTTATAGAATTATGTTTT [TGCATGCA_negctrl_site544] | 8.62 ± 0.49
18 | AGCAAAATGAAATAAATTGGAAAATATTACTGAACG [CACACA_negctrl_site1433] | 8.76 ± 0.44
19 | GCAAATCTTATATGAAGTACATATCTTATAAATAAA [XGTACX_site6903] | 8.53 ± 0.45

Row | Sequence | gcPBM binding intensity (ln)
20 | TTTATTATATTTTTTTGTACATATTGATGTATATAA [XGTACX_site6527] | 8.65 ± 0.4
21 | TGAATTTACAAAATCATGCACTTAATTACAGAATAA | 8.52 ± 0.43
22 | ATAAAAAAAAAAAGAAGTACATGTATTAAAATTTAT [XGTACX_site3927] | 8.93 ± 0.53
23 | AACAAAGGATTTATATATACATACATACATACATAA [GTGCAC_negctrl_site469] | 8.84 ± 0.41
24 | ATTTTGGAAATAATATGTACATATACATAATATATA [XGTACX_site4177] | 8.58 ± 0.38
25 | CGAACACAAACACAAACACACATCATATATATATAT [CACACA_site4857] | 9.72 ± 0.24
26 | AATATACAAAAAAAAAAAAAAAAAAAAAAGATGGAA [TGCATGCA_negctrl_site550] | 8.53 ± 0.71
27 | ATCTTTTCATATTGCTGTACAAATTATTTTCATTCG [XGTACX_site492] | 8.99 ± 0.42
28 | TTAATATTAATTATATGTACATATAATATATATATA [XGTACX_site1757] | 8.49 ± 0.22
29 | TGTATAAAATTCCATTGTACATATTATTTTACGACA [XGTACX_site7764] | 8.66 ± 0.47
30 | GAGAAATGGAGACACACACACATATTATATATATAT [CACACA_site1532] | 9.85 ± 0.15
31 | ATGTTAAACAAATCTATACACACGTATATGACAAAA [CACACA_site1783] | 9.1 ± 0.26
32 | AAAAGTCTTCAAATTTGTACATATATATATATATAT [XGTACX_site3404] | 9.47 ± 0.3
33 | GGTACATACAGACACACACACAAAAAAAAAAAAATA [CACACA_site6844] | 9.81 ± 0.64
34 | AATAAATTATATATCACACATATATATTTATATTTA [CACACA_site5964] | 8.59 ± 0.42
35 | ACATATAAAATATTCACACACAAGTTATAGTTCTCG [CACACA_site3626] | 9.28 ± 0.36
36 | ATATATATATATATAGTGCACATTTATATAATTATT | 9.53 ± 0.34
37 | AAATGTGAACTATAATAATTTCAACGTCTGATATAA [TGCATGCA_negctrl_site440] | 8.69 ± 0.47
38 | TTTCTTTCGAATGCTTCACACATTACTCTTAAATAG [CACACA_site5265] | 8.66 ± 0.42

Row | Sequence | gcPBM binding intensity (ln)
39 | CAAAACCTAATATGTACACACATATACATCACACTT [CACACA_site7480] | 9.36 ± 0.38
40 | AAATTTATAAAGAACACACACATATATATATATATA [CACACA_site48] | 10 ± 0.21
41 | ATTTTGTTATTATATATATATATATATATATATATA [XGTACX_negctrl_site590] | 9.29 ± 0.29
42 | ATATTTCTGTCAAGCACACATAATATTAATATATGT [CACACA_site318] | 9.3 ± 0.29
43 | ATTTTAAATTAAATTACACACTACGAATAATATATT [CACACA_site4016] | 8.7 ± 0.42
44 | ATTCATATGAAACACACACACACACCCATAAAAAAA [CACACA_site3246] | 10.2 ± 0.2
45 | TCTTTTCAATTTTATATGATCTTAATATTTTATGAA [GTGCAC_negctrl_site294] | 8.38 ± 0.46
46 | ATTTTTTACATACTCAAATGTTTTAATTTTTTATAT [CACACA_negctrl_site1213] | 8.76 ± 0.51
47 | TTTTTTTTTTTTTACACACACAAAATATTATAGGTA [CACACA_site7209] | 9.09 ± 0.42
48 | ACATTAAAAAATTGTTTGCACTATATAAAATATTAA [GTGCAC_site9728] | 8.39 ± 0.38
49 | AATATAAGAAAAATAACACACACATAAACATATATA [CACACA_site8899] | 9.54 ± 0.35
50 | TTTCTTTTCTTCTCTATTTTTTTTTCACGGCATTAT [TGCATGCA_negctrl_site484] | 8.74 ± 0.52
51 | TATATATATATATATTGTACTTTATATGTTCTTATA [XGTACX_site7545] | 9.37 ± 0.42
52 | TTTTATAAAGGAAAAGCATGCAGACTAAAAGATCAT [TGCATGCA_site150] | 9.02 ± 0.25
53 | AAATATTACATTTGTTAAATAATATGTTATACATAA [XGTACX_negctrl_site484] | 8.31 ± 0.3
54 | TAATGGAGAAAAAAAAAACACACGGTACATTCAAAG [CACACA_site3117] | 9.01 ± 0.46
55 | TGTATAAAAATTTATACACACATTTTATATATTTCA [CACACA_site1015] | 8.7 ± 0.41
56 | TAATCCATAAGAAGCACACACATATATATATATTTT [CACACA_site1399] | 9.35 ± 0.35

— the supplement of paper PMC11417369
